Experimental data taken from PubChem BioAssay AID1745853 (National Center for Advancing Translational Sciences (NCATS), 2022).
This is one part of the list. Shown are side measurements of this screen, not its main read-out; they come without a call.

What was measured:
Test in all cases: Primary Screen for Target Class Profiling of Small Molecule Inhibitors of Methyltransferases
[1] = biological target: Glycine N-methyltransferase (Homo sapiens) (UniProt Q14749); conditions: purified enzyme, MTase-Glo SAH luminescence; measured here: GNMT inhibition; at 40 µM; stronger effect = lower value
In short: (§1)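 Each enzyme was assayed with SAM and its substrate. SAH formation detected by MTase-Glo luminescence; single-point 40 uM screen[…].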

[2] = biological target: Guanidinoacetate N-methyltransferase (Homo sapiens) (UniProt Q14353); conditions: purified enzyme, MTase-Glo SAH luminescence; measured here: GAMT inhibition; at 40 µM; stronger effect = lower value
In short: as §1

[3] = biological target: Histamine N-methyltransferase (Homo sapiens) (UniProt P50135); conditions: purified enzyme, MTase-Glo SAH luminescence; measured here: HNMT inhibition; at 40 µM; stronger effect = lower value
In short: as §1

[4] = biological target: Nicotinamide N-methyltransferase (Homo sapiens) (UniProt P40261); conditions: purified enzyme, MTase-Glo SAH luminescence; measured here: NNMT inhibition; at 40 µM; stronger effect = lower value
In short: as §1

[5] = biological target: Phenylethanolamine N-methyltransferase (Homo sapiens) (UniProt P11086); conditions: purified enzyme, MTase-Glo SAH luminescence; measured here: PNMT inhibition; at 40 µM; stronger effect = lower value
In short: as §1
On the % scale 0 is the no-effect control and ±100 the full control effect.

Compound | activity change, negative = inhibition [1] [%] | activity change, negative = inhibition [2] [%] | activity change, negative = inhibition [3] [%] | activity change, negative = inhibition [4] [%] | activity change, negative = inhibition [5] [%]
Cc1cc2c(cc3n2CC(C)(C(=O)NC2CCCCC2)N(CCCc2ccccc2)C3=O)o1 (configuration not stated) | 5.95 | 8.33 | 6.82 | 2.9 | 0.704
COc1cncc([C@@H](NC(=O)CCc2c(C)noc2C)C2CC(O)C2)c1 (some centres not stated) | -3.1 | 1.27 | 1.27 | 0.852 | 15.4
CC(C)n1c(=O)c2ccc(C(=O)NC3CCCC3)cc2n2c(=O)n(CC(=O)c3ccccc3)nc12 | -4.72 | -12.2 | 0.804 | -7.91 | -4.77
O=C([C@@H]1C[C@H](F)CN1S(=O)(=O)Cc1ccccc1Cl)N1CCCCC1 | -5.45 | -7.99 | -1.72 | -7.56 | -3.87
CCCOc1ccc(CN2C(=O)c3cc4oc(C)cc4n3CC2(C)C(=O)NC2CCCCC2)cc1 (configuration not stated) | -0.519 | 7.06 | 0.904 | -9.3 | -1.28
CNC(=O)c1ccc(CN2CC3(CCN(C(C)=O)CC3)CC2C(=O)O)o1 (configuration not stated) | -3.98 | -6.57 | -2.9 | -7.97 | -8.52
CC(C)S(=O)(=O)NC[C@H](C)c1ccc(-c2ccc(CCNS(C)(=O)=O)cc2)cc1 | -1.25 | 0.995 | 7.44 | -15.8 | -8.41
O=C1CN(Cc2ccc(Cl)cc2)S(=O)(=O)c2ccccc2N1Cc1ccc(F)cc1 | -3.92 | -5.71 | 2.6 | -12.5 | -6.45
C=C[C@H]1[C@H](O[C@@H]2O[C@H](CO)[C@@H](O)[C@H](O)[C@H]2O)OC=C(C(=O)OC)[C@H]1C[C@@H]1N[C@H](C(=O)O)Cc2c1[nH]c1ccccc21 | 0.999 | -7.51 | 3.95 | -17.2 | -1.57
O=C1NC2(CCN(C(=O)c3ccc4c(c3)OCO4)C2)Oc2ccccc21 (configuration not stated) | -6.36 | -7.21 | -3.83 | -11.7 | -6.72
CC1CCN(S(=O)(=O)c2ccc3c(ccn3CC(=O)NCc3ccc(N(C)C)cc3)c2)CC1 | 5.99 | 6.15 | -2.98 | -0.01 | 0.887
COc1ccc2c(Oc3ccc(NC(=O)c4c(C)n(CC(C)(C)O)n(-c5ccccc5)c4=O)cc3F)ccnc2c1 | 0.814 | -1.61 | -59.2 | -32 | 2.81
O=C(CCCN1CCC(O)(c2cccc(C(F)(F)F)c2)CC1)c1ccc(F)cc1 | -1.32 | 7.69 | 2.83 | -8.99 | -5.65
Cc1cccc(C(=O)N2CCCC(c3nnnn3-c3ccccc3)C2)c1 (configuration not stated) | -1.43 | -0.76 | -3.01 | -7.41 | -4.82
COc1cccc(NC(=O)CCc2nnc3n(CCc4ccccc4)c(=O)c4ccccc4n23)c1 | -0.435 | 1.71 | 6.81 | -0.699 | -0.875
CC1CCCCC1NC(=O)C1(C)Cn2c(ccc2-c2ccco2)C(=O)N1CCCc1ccccc1 (configuration not stated) | -10.8 | 4.14 | -5.47 | -10.9 | -3.84
CCC1CN(C(=O)c2ccc(NCc3cnn(CC)c3)nc2)CCN1C(C)C (configuration not stated) | -3.11 | -3.32 | -11.3 | 1.24 | -3.3
CN(C)CCCn1cc(C2=C(c3c[nH]c4ccccc34)C(=O)NC2=O)c2ccccc21 | -48.9 | -25.4 | -74.5 | -49.1 | -46.2
Cc1ccc2c(c1)c(-n1cccc1)c1n2CC(C)(C(=O)NCCC(C)C)N(Cc2ccco2)C1=O (configuration not stated) | -11.6 | -0.372 | -2.44 | -7.81 | -6.11
CNC(C)C(=O)NC(C(=O)N1CCCC1c1nc(C(=O)c2ccc(F)cc2)cs1)C1CCCCC1 (configuration not stated) | -6.25 | – | 3.52 | – | –
Cc1ccc(NC(=O)Cn2nc3n(C)c(=O)c4ccc(C(=O)NC5CCCC5)cc4n3c2=O)cc1 | 8.62 | 0 | 5.91 | 1.34 | 5.91
CC(C)CNC(=O)c1nc(-c2ccc(Cl)cc2)c2cnccn12 | -14.1 | -11.1 | -14 | -33.4 | -6.61
CC1(C(=O)NC2CCCCCCC2)Cn2c(cc3occc32)C(=O)N1Cc1ccccn1 (configuration not stated) | 3.64 | -1.95 | 8.89 | -9.3 | 0.675
CC(C)CCNC(=O)C1(C)Cn2c(cc3ccccc32)C(=O)N1Cc1ccccc1 (configuration not stated) | 2.52 | 0 | 5.25 | 3.53 | -0.514
CN1C(=O)c2cc(C(=O)NCc3ccc4c(c3)OCO4)nn2CC1(C)C(=O)NCc1ccccc1 (configuration not stated) | 4.16 | 0 | 1.1 | 2.64 | 0.907
COc1c(C)cc(NC(=O)c2nn(Cc3ccc(F)cc3)c3c2CN(C(=O)c2ccc[nH]2)C[C@]3(C)C(N)=O)cc1C | -2.22 | 6.02 | 6.33 | -7.95 | 2.86
CCCN1C(=O)c2cc(C(=O)NCc3ccc(N(C)C)cc3)nn2CC1(C)C(=O)NC1CCCC1 (configuration not stated) | -0.206 | 1.53 | 1.57 | 0.137 | -1.51
CN(CCCN1C(=O)c2ccc(-c3ccco3)n2CC1(C)C(=O)NC1CCCCC1)C1CCCCC1 (configuration not stated) | 2.18 | 0 | 2.92 | 5.6 | -0.065
CCOc1ccc(CN2C(=O)c3ccc(-c4ccco4)n3CC2(C)C(=O)NC2CCCC2)cc1 (configuration not stated) | -7.65 | 4.53 | -1.6 | 0.588 | -3.37
